Data on four molecules can be found in patent CN116018351A (SHANGHAI YOUTI JISHENG BIOMEDICAL CO LTD, dated 2023).

This assay addresses T1, CD123-Fc重组蛋白 (human, UniProt P26951 19-305).
T1 construct: also called CD123-Fc蛋白; 人CD123-Fc; not shown: Fc part
T1 sequence: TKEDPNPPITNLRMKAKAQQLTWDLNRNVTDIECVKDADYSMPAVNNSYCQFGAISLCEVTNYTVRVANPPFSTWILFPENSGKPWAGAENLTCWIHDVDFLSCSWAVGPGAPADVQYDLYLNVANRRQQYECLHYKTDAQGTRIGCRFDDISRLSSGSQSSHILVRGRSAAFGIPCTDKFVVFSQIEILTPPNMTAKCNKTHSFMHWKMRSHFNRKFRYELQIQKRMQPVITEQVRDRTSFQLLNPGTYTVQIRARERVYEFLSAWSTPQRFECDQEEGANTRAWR
The assay is described as follows: FACS staining of CAR T cells with CD123-Fc recombinant protein.

B1: 抗CD123 scFv-C7 (in a CAR on T cells) (scFv)
scFv: [sequence of about 100 residues not given]GGGGSGGGGSGGGGSQVQLVQSGAEVKKPGASVKVSCKASGYTFTSYGISWVRQAPGQGLEWMGWISAYNGNTNYAQKLQGRVTMTTDTSTSTAYMELRSLRSDDTAVYYCARDPYDDYGGNSRDEEDAFDIWGQGTMVTVSS
notes: Human scFv from phage display; also called 抗-CD123-C7; not shown: rest of the CAR, hinge domain to CD3-zeta domain
Turning to B1, the binding result was “binds”.

B2: 抗CD123 scFv-C35 (in a CAR on T cells) (scFv)
scFv: QSVVTQPPSVSAASGQKVTISCSGSSPNIGNNYVSWYQHLPGTAPKLLIYDNNKRPSGIPDRFSGSKSGTSVTLGITGLQTGDEADYYCGTWDSRLNIWVFGGGTKLTVLGGGGSGGGGSGGGGS[sequence of about 100 residues not given][sequence of about 20 residues not given]
notes: Human scFv from phage display; not shown: rest of the CAR, hinge domain to CD3-zeta domain
With B2, the binding result is given as “binds”.

B3: 抗CD123 scFv-C25 (in a CAR on T cells) (scFv)
scFv: QSALTQPASVSGPPGQSITISCTGTSSDVGGYNYVSWYQQHPGKAPKLMIYDVSNRPSGVSNRFSGSKSGNTASLTISGLQAEDEADYYCSSYTSSSTWVFGGGTKLTVLGGGGSGGGGSGGGGS[sequence of about 100 residues not given]YYFYSSGDMTDYWGQGTLVTVSS
notes: as for B2
For B3, the binding result is given as “binds”.

B4: 抗CD123 scFv-C28 (in a CAR on T cells) (scFv)
scFv: QSALTQPASVSGSPGQSITISCTGTSSDVGGYNYVSWYQQHPGKAPKLMIYDVSNRPSGVSNRFSGSKSGNTASLTISGLQAEDEADYYCSSYTSSSNWVFGGGTELTVLGGGGSGGGGSGGGGS[sequence of about 100 residues not given]YYFYSSGDMTDYWGQGTLVTVSS
notes: as for B2
As to B4, the binding result is “binds”.
